{
  "source": "paper PMC5700166",
  "note": "Only a part is listed here, and it is no random draw. For some of these results: The list includes weakly bound sequences.",
  "data": [
    {"molecular_target": "T1, GST-Ap-NF-kB RHD (UniProt A0A913YAJ5)", "T1 sequence": "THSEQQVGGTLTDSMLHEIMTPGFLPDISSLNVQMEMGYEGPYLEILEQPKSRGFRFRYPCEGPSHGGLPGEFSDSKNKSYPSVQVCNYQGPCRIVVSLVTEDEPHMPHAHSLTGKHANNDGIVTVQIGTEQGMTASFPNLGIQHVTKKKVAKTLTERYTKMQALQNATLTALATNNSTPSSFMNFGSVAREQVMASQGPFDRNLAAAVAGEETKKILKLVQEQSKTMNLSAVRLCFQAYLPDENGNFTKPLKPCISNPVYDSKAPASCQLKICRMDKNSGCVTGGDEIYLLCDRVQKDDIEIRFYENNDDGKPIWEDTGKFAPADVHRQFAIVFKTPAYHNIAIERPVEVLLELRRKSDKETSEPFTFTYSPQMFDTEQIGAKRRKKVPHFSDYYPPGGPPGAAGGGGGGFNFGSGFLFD", "test": "protein-binding microarray (PBM)", "details": "PBM: ~300 nM protein, 6 mM HEPES pH 7.8, 80 mM KCl, 0.5 mM EDTA, 0.5 mM EGTA, 6% glycerol, 35 ng/ul poly-dIdC, 1% milk, 1 h, room temperature; high values mean tight binding; double strand, one strand shown", "units": {"binding signal": "z-score"}, "values": [
      {"sequence": "CCGATTAACATCACGGGGATCCCTGATGTTAATCGGGTCTTGATTCGCTTGACGCTGCTG", "binding signal": 8.72},
      {"sequence": "CCGATTAACATCAGGACGTCCCCTGATGTTAATCGGGTCTTGATTCGCTTGACGCTGCTG", "binding signal": 7.08},
      {"sequence": "CCGATTAACATCATAAGCGGGGATGATGTTAATCGGGTCTTGATTCGCTTGACGCTGCTG", "binding signal": 3.32}
    ]},
    {"molecular_target": "T2, GST-Nv-NF-kB (Cys allele) (UniProt E5G601)", "T2 sequence": "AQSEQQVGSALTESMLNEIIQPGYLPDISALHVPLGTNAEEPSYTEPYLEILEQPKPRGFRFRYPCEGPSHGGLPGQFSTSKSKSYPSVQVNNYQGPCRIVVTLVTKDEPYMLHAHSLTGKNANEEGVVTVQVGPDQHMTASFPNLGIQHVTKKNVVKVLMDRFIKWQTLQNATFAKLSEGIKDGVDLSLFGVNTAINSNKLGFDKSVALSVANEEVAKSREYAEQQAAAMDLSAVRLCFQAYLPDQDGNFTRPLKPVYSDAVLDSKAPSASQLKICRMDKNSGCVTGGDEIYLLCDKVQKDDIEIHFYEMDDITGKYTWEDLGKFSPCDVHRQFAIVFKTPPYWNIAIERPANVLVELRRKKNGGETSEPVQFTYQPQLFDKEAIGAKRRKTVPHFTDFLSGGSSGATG", "test": "protein-binding microarray (PBM)", "details": "PBM: ~300 nM protein, 6 mM HEPES pH 7.8, 80 mM KCl, 0.5 mM EDTA, 0.5 mM EGTA, 6% glycerol, 35 ng/ul poly-dIdC, 1% milk, 1 h, room temperature; Ap Aiptasia and Nv Nematostella (sea anemones) / Co Capsaspora / Aq Amphimedon (sponge) / Dm Drosophila / Hu human; RHD is the Rel homology domain; high values mean tight binding; most listed sequences are background and not binding sites; double strand, one strand shown", "units": {"binding signal": "z-score"}, "values": [
      {"sequence": "CCGATTAACATCAGGGGGTGATATGATGTTAATCGGGTCTTGATTCGCTTGACGCTGCTG", "binding signal": 3.66},
      {"sequence": "CCGATTAACATCAGGGGGGTAAATGATGTTAATCGGGTCTTGATTCGCTTGACGCTGCTG", "binding signal": 4.22},
      {"sequence": "CCGATTAACATCACATATTCCCCTGATGTTAATCGGGTCTTGATTCGCTTGACGCTGCTG", "binding signal": 8.81},
      {"sequence": "CCGATTAACATCAGGGGGTTACATGATGTTAATCGGGTCTTGATTCGCTTGACGCTGCTG", "binding signal": 4.25},
      {"sequence": "CCGATTAACATCAAGGGGAATTCTGATGTTAATCGGGTCTTGATTCGCTTGACGCTGCTG", "binding signal": 11.3},
      {"sequence": "CCGATTAACATCAAAACTCCCCGTGATGTTAATCGGGTCTTGATTCGCTTGACGCTGCTG", "binding signal": 6.47},
      {"sequence": "CCGATTAACATCAAAAAACCCACTGATGTTAATCGGGTCTTGATTCGCTTGACGCTGCTG", "binding signal": 2.49},
      {"sequence": "CCGATTAACATCAAGGGGAAAATTGATGTTAATCGGGTCTTGATTCGCTTGACGCTGCTG", "binding signal": 8.8},
      {"sequence": "CCGATTAACATCAAAAATTCCAGTGATGTTAATCGGGTCTTGATTCGCTTGACGCTGCTG", "binding signal": 0.572},
      {"sequence": "CCGATTAACATCACGGGGGATTCTGATGTTAATCGGGTCTTGATTCGCTTGACGCTGCTG", "binding signal": 7.68},
      {"sequence": "CCGATTAACATCAACCTTTCCCCTGATGTTAATCGGGTCTTGATTCGCTTGACGCTGCTG", "binding signal": 6.21},
      {"sequence": "CCGATTAACATCAGGGAATTAAATGATGTTAATCGGGTCTTGATTCGCTTGACGCTGCTG", "binding signal": 4.46},
      {"sequence": "CCGATTAACATCAGAAAATACCCTGATGTTAATCGGGTCTTGATTCGCTTGACGCTGCTG", "binding signal": 8.27},
      {"sequence": "CCGATTAACATCACCCCACCCCCTGATGTTAATCGGGTCTTGATTCGCTTGACGCTGCTG", "binding signal": 2.66},
      {"sequence": "CCGATTAACATCAGGGGAGGGAATGATGTTAATCGGGTCTTGATTCGCTTGACGCTGCTG", "binding signal": 5.44},
      {"sequence": "CCGATTAACATCACGAGATTCCCTGATGTTAATCGGGTCTTGATTCGCTTGACGCTGCTG", "binding signal": 3.39},
      {"sequence": "CCGATTAACATCAGGGGGTAACATGATGTTAATCGGGTCTTGATTCGCTTGACGCTGCTG", "binding signal": 3.69},
      {"sequence": "CCGATTAACATCAGGGATAACCCTGATGTTAATCGGGTCTTGATTCGCTTGACGCTGCTG", "binding signal": 3.77},
      {"sequence": "CCGATTAACATCACAAAATCCCCTGATGTTAATCGGGTCTTGATTCGCTTGACGCTGCTG", "binding signal": 10.8},
      {"sequence": "CCGATTAACATCACTGGGATTTCTGATGTTAATCGGGTCTTGATTCGCTTGACGCTGCTG", "binding signal": 1.96},
      {"sequence": "CCGATTAACATCAGGAAACACCCTGATGTTAATCGGGTCTTGATTCGCTTGACGCTGCTG", "binding signal": 2.79},
      {"sequence": "CCGATTAACATCAAGGGAATTCCTGATGTTAATCGGGTCTTGATTCGCTTGACGCTGCTG", "binding signal": 8.71},
      {"sequence": "CCGATTAACATCAGGGAAATAAATGATGTTAATCGGGTCTTGATTCGCTTGACGCTGCTG", "binding signal": 4.44},
      {"sequence": "CCGATTAACATCAAAATTCCCTGTGATGTTAATCGGGTCTTGATTCGCTTGACGCTGCTG", "binding signal": 6.86},
      {"sequence": "CCGATTAACATCAAGATTTCCCCTGATGTTAATCGGGTCTTGATTCGCTTGACGCTGCTG", "binding signal": 10.4},
      {"sequence": "CCGATTAACATCACGGAAATTTCTGATGTTAATCGGGTCTTGATTCGCTTGACGCTGCTG", "binding signal": 1},
      {"sequence": "CCGATTAACATCAGGACAACCCCTGATGTTAATCGGGTCTTGATTCGCTTGACGCTGCTG", "binding signal": 3.16},
      {"sequence": "CCGATTAACATCAAAAATCCACCTGATGTTAATCGGGTCTTGATTCGCTTGACGCTGCTG", "binding signal": 2.65},
      {"sequence": "CCGATTAACATCAGGAGTGCCCCTGATGTTAATCGGGTCTTGATTCGCTTGACGCTGCTG", "binding signal": 2.03},
      {"sequence": "CCGATTAACATCAAGTACTTCCCTGATGTTAATCGGGTCTTGATTCGCTTGACGCTGCTG", "binding signal": 2.22},
      {"sequence": "CCGATTAACATCAGGCTTCCCCCTGATGTTAATCGGGTCTTGATTCGCTTGACGCTGCTG", "binding signal": 5.65},
      {"sequence": "CCGATTAACATCAGAATCCCCCCTGATGTTAATCGGGTCTTGATTCGCTTGACGCTGCTG", "binding signal": 7.84},
      {"sequence": "CCGATTAACATCAGGGAGTTTTATGATGTTAATCGGGTCTTGATTCGCTTGACGCTGCTG", "binding signal": 7.35},
      {"sequence": "CCGATTAACATCAAAAGGGGATATGATGTTAATCGGGTCTTGATTCGCTTGACGCTGCTG", "binding signal": 5.63},
      {"sequence": "CCGATTAACATCACGTTTTTCCCTGATGTTAATCGGGTCTTGATTCGCTTGACGCTGCTG", "binding signal": 4.59},
      {"sequence": "CCGATTAACATCAAAGACCCCCCTGATGTTAATCGGGTCTTGATTCGCTTGACGCTGCTG", "binding signal": 4.15},
      {"sequence": "CCGATTAACATCAGAAATTACCCTGATGTTAATCGGGTCTTGATTCGCTTGACGCTGCTG", "binding signal": 6.24},
      {"sequence": "CCGATTAACATCACGGGGATCCCTGATGTTAATCGGGTCTTGATTCGCTTGACGCTGCTG", "binding signal": 5.48},
      {"sequence": "CCGATTAACATCAGGACGTCCCCTGATGTTAATCGGGTCTTGATTCGCTTGACGCTGCTG", "binding signal": 6.03},
      {"sequence": "CCGATTAACATCATAAGCGGGGATGATGTTAATCGGGTCTTGATTCGCTTGACGCTGCTG", "binding signal": 3.81}
    ]}
  ]
}
